According to PubChem BioAssay AID485313 (National Center for Advancing Translational Sciences (NCATS), 2010):
Out of some 320,000 compounds screened, about 7,600 (2.4%) were called active. Inconclusive means that the source gave no clear call. Such entries were picked first, then a sample of the others. Calls come from the whole dose curve; as a rule, active = well fitted activation curve with a large enough effect; inconclusive = small, poorly fitted or top-dose-only effect; inactive = no such curve, though single readings can be large or run the other way. No potency is given beside an inconclusive call; the fits are too rough.

Experiment: qHTS Assay for NPC1 Promoter Activators; note: nearly all actives have a fitted effect of over 60% in size;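 for activation: reporter is driven by a mutant NPC1 promoter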
Details: Huh7 NPC1 promoter luciferase reporter, 24 h; series mostly up to 9.22 µM
In short: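 Huh7 reporter cells (NPC1 promoter driving luciferase) are dosed with compound for 24 h at 37 °C, 5% CO2; luciferase detection reagent is then added and luminescence measured after 10 min at ambient temperature.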
Potency is the fitted concentration of half-maximal effect; tags give direction and shape of the fitted curve.

Compound | Potency
Cc1ccc2[nH]c(SCC(=O)N3CCOCC3)nc2c1C | inconclusive [activator, partial curve]
COC(=O)c1ccc(C23CC4(C2)[C@H](CN(Cc2cccnc2)[C@@H]4c2ccccc2)C3c2ccc(Cl)nc2)cc1 (stereo partly drawn) | inactive
Nc1nc(-c2cc3ccccc3o2)cs1 | active: 2.24 µM
CCOC(=O)c1c(C)[nH]c(/C(C)=N/O)c1C | inactive
O=C(c1ccco1)N1CCN(c2ccc(Cl)cc2)CC1 | inconclusive [activator, partial curve]
CC1(C)Cc2c(sc(NC(=O)c3ccco3)c2C(=O)O)CO1 | inconclusive [activator, single point]
CN(C)c1ccc(N=Nc2cccc3ccoc23)cc1 | inconclusive [activator, single point]
Cc1ccc(C(NC(=O)c2cccc(S(=O)(=O)N3CCN(C)CC3)c2)c2ccccc2)cc1 (stereo not drawn) | inactive
O=C(NC(=S)NC1CCCCCC1)c1cncc(Br)c1 | inconclusive [activator, single point]
Cc1ccc2c(COC(=O)C34CC5CC(CC(C5)C3)C4)cc(=O)oc2c1 | inconclusive [activator, partial curve]
CCC(=O)Oc1ccc(C(=O)Nc2ccc([N+](=O)[O-])cc2)cc1 | active: 2.82 µM
CCn1cc(SCC(=O)N2CCOCC2)c2ccccc21 | inconclusive [activator, partial curve]
Brc1ccc(-c2csc(N/N=C/c3ccco3)n2)cc1 | inconclusive [activator, single point]
NC(=O)C1CCN(C(=O)c2ccc(-c3ccccc3Cl)o2)CC1 | inconclusive [activator, partial curve]
CC1CCN(C(=O)CCCC(=O)N2CCC(C)CC2)CC1 | inconclusive [activator, partial curve]
O=Nc1c(-c2ccccc2)cc2ccccn12 | inconclusive [activator, partial curve]
NC(=O)C1CC(=O)N(c2ccc(OCc3ccc([N+](=O)[O-])cc3)cc2)C1 (stereo not drawn) | inconclusive [activator, partial curve]
O=[N+]([O-])c1ccc(-c2cc(-c3ccc(Cl)cc3)n[nH]2)cc1 | inconclusive [activator, single point]
O=C(O)c1ccc(Nc2nc(-c3cccnc3)cs2)cc1 | inconclusive [activator, partial curve]
Cc1ccc(C)c(NC(=O)CSc2nccn2Cc2ccco2)c1 | inconclusive [activator, partial curve]
COc1ccc(OCCCn2cccc2/C=C2/C(=N)N3OC(C)=CC3=NC2=O)cc1 | inconclusive [activator, single point]
CC(C)CN(C(=O)COc1ccc(Br)cc1C=O)C1CCS(=O)(=O)C1 (stereo not drawn) | inactive
Cc1cc(N2CCOCC2)n2ncc(-c3ccc(Cl)cc3)c2n1 | active: 2.24 µM
Cc1ccsc1/C=C/c1ccc2cccc(O)c2n1 | inconclusive [activator, partial curve]

Compound | Potency
CCN(CC)c1ccc(C=Nc2cccnc2Cl)c(O)c1 | inactive
Cc1cc(C(=O)OCC(=O)c2ccccc2)c2ccccc2n1 | inactive
O=C(Nc1nccs1)c1ccc2c(=O)n3c(nc2c1)CCCCC3 | active: 2.82 µM
Cc1cc(C)nc(NC(=O)/C=C/c2ccccc2Cl)c1 | inconclusive [activator, single point]
Cc1ccc(Nc2nc(-c3ccccc3)cs2)nc1 | active: 0.447 µM
N/C(=N\OC(=O)c1ccc([N+](=O)[O-])cc1)c1ccccn1 | active: 0.355 µM
Cc1ccc(C(=O)NC2=NCCS2)cc1 | active: 2.82 µM
CC1(C)CC(=O)c2sc(N3CCCCC3)nc2C1 | inconclusive [activator, single point]
Cc1ccc(NC(=O)CN2CCCCCC2)cc1[N+](=O)[O-] | inactive
CCCCCCC(=O)Nc1ccc(C(=O)N/N=C/c2cccnc2)cc1 | inconclusive [activator, single point]
CCN(CC)c1ccc(C(=O)OCC(=O)c2ccco2)cc1 | inconclusive [activator, full curve]
CC1CCCN(C(=O)COC(=O)Cc2c(F)cccc2Cl)C1 (stereo not drawn) | inconclusive [activator, single point]
CCOc1ccc(-c2ccc(SCc3ccccn3)nn2)cc1 | inconclusive [activator, partial curve]
COc1ccc(C(=O)Nc2ccc(C3(C#N)CCCC3)cc2)cc1OC | inconclusive [activator, single point]
Cc1ccc(N=C2NC(=O)CS2)cc1 | inactive
CC(=O)c1c(C)[nH]c(C(=O)Nc2ccccc2Cl)c1C | inconclusive [activator, partial curve]
O=C(Cc1ccccn1)c1ccc(Cl)cc1 | inconclusive [activator, partial curve]
Cc1cc(C(=O)COC(=O)C2=COCCO2)c(C)n1-c1ccc2c(c1)OCO2 | inconclusive [activator, partial curve]
O=C(Nc1ccc(C(=O)N2CCOCC2)cc1)Nc1cccc(Cl)c1 | inconclusive [activator, partial curve]
COc1ccc2nc(N/C(N)=N/C(=S)Nc3ccc(C)c(C)c3)nc(C)c2c1 | inactive
COc1ccc2nc(N3CCC(C)CC3)c(C#N)cc2c1 | inconclusive [activator, partial curve]
COc1cccc(-c2nc(-c3ccc4c(c3)NC(=O)CO4)cs2)c1 | inconclusive [activator, single point]
CCOc1cccc(CN2CCC(n3nccc3NC(=O)CCCc3ccccc3)CC2)c1 | inactive
CCOc1ccc(Nc2nc(N)nc(CSC(=S)N3CCOCC3)n2)cc1 | active: 2.82 µM
